Laboratory results from PubChem BioAssay AID743279 (National Center for Advancing Translational Sciences (NCATS), 2014).
In all, about 360,000 compounds went through this assay and about 17,000 (4.7%) were called active. This list was built around the results that the source calls inconclusive (neither active nor inactive); the mix of calls is not that of the screen. Rule as the data show it: active = activity change below about -50%; inconclusive = mostly about -30% to -49%; inactive = weaker than that.
% is scaled to controls: 0 for no effect and ±100 for the full control effect.

Experiment: qHTS for Inhibitors of Inflammasome Signaling: IL-1-beta AlphaLISA Primary Screen
Conditions: THP-1 LPS/ATP IL-1B secretion, 16 h; at 57.5 µM, stronger effect = lower value
Method in brief: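 THP-1 cells pretreated 1 hr with compounds (up to 57.5 uM final), then stimulated with LPS (250 ng/mL final) plus ATP (1.25 mM final); secreted IL-1B measured by AlphaLISA after 16 hr, decreased signal indicating inhibition.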
For `O=C(c1ccc(Br)cc1)N(Cc1nc2ccccc2c(=O)[nH]1)C1CCCC1`, the activity change was inconclusive: -44.1%.
For `COc1ccc(C2NC(=O)NC(C)=C2C(=O)OC2CCCC(C)C2)cc1` (stereo not given), the activity change was inconclusive: -32.8%.
In the case of `COc1ccc(-c2nn(-c3ccccc3)cc2CNC(=O)c2cccc([N+](=O)[O-])c2)cc1`, the activity change is reported as inconclusive: -36.5%.
For `O=C(NCCN1CCN(Cc2ccccc2)CC1)c1cc2c(=O)[nH]c3ccccc3c2s1`, the activity change was inconclusive: -45.1%.
For `COc1ccc(CCNC(=O)c2cc(-c3ccccc3OC)on2)cc1OC`, the activity change was inconclusive: -46.1%.
In the case of `O=C(OCC(=O)N1CCCCC1)c1cc(NS(=O)(=O)c2ccc(Cl)c([N+](=O)[O-])c2)ccc1O`, the activity change is reported as inconclusive: -32.7%.
For `COc1ccc(C2=NN(C(=O)c3ccc(Cl)c([N+](=O)[O-])c3)C(c3ccccc3)C2)cc1` (stereo not given), the activity change was inactive: -14.4%.
For `CCCN(CCC)C(=O)c1ccc2c(c1)N(Cc1ccccc1)C(=O)CS2=O` (stereo not given), the activity change was inconclusive: -31.1%.
For `Cc1cc(C(=O)Nc2nc(-c3ccccn3)cs2)ccc1[N+](=O)[O-]`, the activity change was inactive: 107%.
In the case of `O=C(NCc1cccc(Cl)c1)C1CCCN(c2ncnc3c2nc2n3CCCCC2)C1` (stereo not given), the activity change is reported as inconclusive: -43%.
With `COc1ccc(CCNC(=O)CSCc2ccc(C)cc2)cc1OC` the activity change was inactive: 5.86%.
In the case of `Cc1ccc(-c2nc3ncccc3o2)cc1NC(=O)c1ccc([N+](=O)[O-])o1`, the activity change is reported as active: -96.7%.
For `CCCN(CC1CC1)C(=O)COC(=O)c1oc2c(F)cccc2c1C`, the activity change was inactive: -14.7%.
For `COc1ccc2oc3cc(C)[n+]([O-])c(-c4ccc(Cl)cc4)c3c2c1`, the activity change was inactive: 28.2%.
In the case of `c1ccc2c(c1)CSc1ccccc1N2`, the activity change is reported as active: -65.4%.
In the case of `O=[N+]([O-])c1cc2c(c([N+](=O)[O-])c1)Nc1ccccc1O2`, the activity change is reported as inconclusive: -35.6%.
In the case of `CCOC(=O)C1CCN(C(=O)c2c(-c3ccccc3)noc2C)CC1`, the activity change is reported as active: -72.9%.
In the case of `Cc1cccc(-n2nc(CC#N)c(C#N)c2N)c1`, the activity change is reported as inconclusive: -36.1%.
In the case of `O=C(CSc1nnc2ccc(-c3ccc(Br)cc3)nn12)NCC1CCCO1` (stereo not given), the activity change is reported as inconclusive: -31.2%.
With `Cc1ccc(-c2nn(-c3ccccc3)cc2CNCc2ccccc2)cc1` the activity change was active: -80%.
For `Cc1nn(-c2ccccc2)c(C)c1C1C(C#N)=C(N)Oc2n[nH]c(C)c21` (stereo not given), the activity change was inconclusive: -37.5%.
For `COc1cccc(C(O)c2ncc(-c3ccccc3OC)[nH]2)c1` (stereo not given), the activity change was inactive: -6.95%.
With `COc1ccc(-n2nc(C(=O)NCC(=O)N3CCN(c4ccccc4F)CC3)c3ccccc3c2=O)cc1OC` the activity change was inconclusive: -44.4%.
For `C[C@@H]1CCCCO[C@@H](CN(C)Cc2ccc(Cl)c(Cl)c2)[C@@H](C)CN([C@H](C)CO)C(=O)c2cc(NC(=O)Nc3ccccc3)ccc2O1`, the activity change was inconclusive: -31.1%.
With `CC(C)C(=O)N1CCCC1(C)C(=O)Nc1ccc(-n2cncn2)cc1` (stereo not given) the activity change was inactive: 0%.
For `C=C1CCC[C@]2(C)C[C@H]3OC(=O)C(CNC(C)(CO)CO)[C@H]3CC12` (stereo not given in full), the activity change was active: -96.2%.
With `COc1ccc(CCNC(=O)Cn2c([N+](=O)[O-])cnc2C)cc1OC` the activity change was inactive: 27.7%.
In the case of `NS(=O)(=O)c1ccc(Nc2nc(-c3ccccc3)cs2)cc1`, the activity change is reported as inconclusive: -33.3%.
In the case of `Cc1cc(C)c(C)c(S(=O)(=O)ON2C(=O)c3ccccc3C2=O)c1C`, the activity change is reported as active: -119%.
For `O=C(NCCN1CCOCC1)c1ccc2c(c1)N(Cc1ccc(F)cc1)C(=O)CS2`, the activity change was inactive: -6.37%.
For `CCC(C)(C)n1nnnc1C(c1ccc(C)cc1)N1CCSCC1` (stereo not given), the activity change was inconclusive: -36.3%.
In the case of `C/C(=N\N=C(N)N)c1ccc(C)c(C)c1`, the activity change is reported as inconclusive: -48.2%.
With `COc1cc(OC)cc(-c2nc3ccccc3c(=O)n2OC(=O)c2ccc(C)c(C)c2)c1` the activity change was inconclusive: -37.9%.
For `COc1ccc(N2C(=O)/C(=C\c3ccco3)N=C2SCC(=O)NC(C)(C)C)cc1Cl`, the activity change was inconclusive: -34.7%.
With `COC(=O)C1C(=O)c2c([nH]c(C(=O)OC3CCCC3)c2C)CC1C` (stereo not given) the activity change was inconclusive: -35.6%.
For `CC1=C(C(=O)N(C(C)C)C(C)C)CC(CC(=O)NCCCN(C)C)C(=O)N1Cc1ccccc1` (stereo not given), the activity change was inactive: 0%.
For `COc1cccc(-c2csc(N3CCN(C(=O)Nc4ccc(Cl)cc4)CC3)n2)c1`, the activity change was inconclusive: -45.9%.
In the case of `O=S(=O)(c1ccc(NC(=S)N/N=C/c2ccc(O)c(O)c2)cc1)N1CCOCC1`, the activity change is reported as inactive: 35.1%.
For `CCC(=O)N(CCC(c1ccco1)c1ccccc1OC)Cc1cccs1` (stereo not given), the activity change was inconclusive: -36.2%.
For `O=C(Nc1ccccc1)c1cn(CCBr)cn1`, the activity change was inconclusive: -37.9%.
For `CCOC(=O)Cc1csc(SCC(=O)Nc2cccc(Cl)c2)n1`, the activity change was inactive: -6.57%.
With `Cc1ccccc1C(OCC(O)CN1CCN(CCO)CC1)c1ccccc1` (stereo not given) the activity change was inconclusive: -37%.
With `O=C(Cn1nc(CNc2ccc(Cl)cc2)[n+]2c1CCCCC2)c1ccc(Br)cc1` the activity change was active: -52.3%.
In the case of `CC1=NNC(=O)c2ccccc2O1`, the activity change is reported as inactive: 1.69%.
With `CC(C)(C)c1nnc2sc(SCC(=O)c3ccc(Cl)cc3)nn2c1=O` the activity change was inconclusive: -32.7%.
For `O=C(/C=C/c1ccc2ccccc2n1)N1CCN(S(=O)(=O)c2ccccc2F)CC1`, the activity change was active: -75.6%.
With `COc1cccc(/C=N/Nc2ccc([N+](=O)[O-])cc2)c1O` the activity change was inconclusive: -38.7%.
For `O=C(N/N=C/c1ccc(-c2cccc([N+](=O)[O-])c2)o1)c1cccs1`, the activity change was inactive: 35.1%.
For `COc1ccccc1NC(=S)Nc1ccccn1`, the activity change was active: -58.2%.
For `C/C(CC(=O)Nc1ccc([N+](=O)[O-])cc1)=N\NC(=O)c1ccccc1O`, the activity change was inactive: 16.9%.
With `C=CC[C@@H](CC(=O)N[C@H](CO)Cc1ccccc1)C(=O)N[C@H](COC(=O)[C@@H](CC=C)Cc1ccc(F)cc1)Cc1c[nH]c2ccccc12` the activity change was inconclusive: -43.1%.
In the case of `COc1ccc(Oc2nccc(OC)c2C#N)cc1`, the activity change is reported as inconclusive: -37.4%.
For `CN(C)CCc1cc2c(c3c1ccc1ccccc13)OCO2`, the activity change was active: -95.9%.
With `COC(=O)[C@]12CCCCC=C1N(Cc1ccc3c(c1)OCO3)C(=O)[C@H](CC(=O)NCCC(C)C)C2` the activity change was inconclusive: -36%.
In the case of `Oc1ccc(Cl)cc1C(C#Cc1ccccc1)N1CCOCC1` (stereo not given), the activity change is reported as inconclusive: -31.4%.
For `Cc1ccc(C)c(N2CCN(C(=O)c3ccc4nc(-c5ccco5)c(-c5ccco5)nc4c3)CC2)c1`, the activity change was inconclusive: -43.5%.
With `CCN(CC)C(=O)c1c(C)nc2ccccn12` the activity change was inactive: 26.2%.
With `COc1ccc(C(=O)CSc2nnc(CNc3ccc(C)cc3C)n2Cc2ccco2)cc1` the activity change was inconclusive: -35.4%.
In the case of `Nc1ccc(Sc2cnn(-c3ccccc3)c(=O)c2Cl)cc1`, the activity change is reported as inconclusive: -47.3%.
In the case of `Cc1cc(Br)ccc1OCCCCNC(C)(C)C`, the activity change is reported as inconclusive: -36.1%.
With `O=C(c1ccc(N2CCCCS2(=O)=O)cc1)N1CCN(c2ccccc2F)CC1` the activity change was inactive: 6.75%.
With `C=C(C)CSc1nnc(-c2cccc(Cl)c2)n1N` the activity change was inconclusive: -31.5%.
In the case of `CCCCn1c(SCC(N)=O)nc2sc3c(c2c1=O)CCC3`, the activity change is reported as inconclusive: -40%.
With `COCCN(C(=O)c1cc(CN2C(=O)c3ccccc3C2=O)ccc1OC)c1c(N)n(CC(C)C)c(=O)[nH]c1=O` the activity change was inactive: 0%.
For `CC1Oc2ccccc2C=C1/C=N/Nc1ccc(C(=O)O)cc1` (stereo not given), the activity change was inconclusive: -35.2%.
With `Cc1cc(Cl)c2oc(C(=O)NCC(C)(C)N3CCOCC3)c(C)c2c1` the activity change was inactive: 49.9%.
With `COc1cc(CCC(=O)Nc2ccc(S(=O)(=O)N3CCCC3)cc2)cc(OC)c1OC` the activity change was inactive: 17.1%.
With `O=C(CC1C[C@H](C(=O)N2CCOCC2)[C@@]2(CCC3CCCC3)c3[nH]c4ccccc4c3CCN2C1=O)NCCc1ccccn1` (stereo not given in full) the activity change was inactive: 0%.
In the case of `CCOc1ccccc1CNC(=O)Cn1ccc2cc(S(=O)(=O)N3CCCCCC3)ccc21`, the activity change is reported as inconclusive: -31.8%.
For `C#Cc1ccc([C@@H]2C=C(C(=O)NC3CC3)O[C@H](OCCCCO)C2)cc1`, the activity change was inactive: 1.55%.
In the case of `O=C(NO)c1cc(OCC(F)(F)F)ccc1OCC(F)(F)F`, the activity change is reported as inconclusive: -33.4%.
For `COc1ccc([N+](=O)[O-])cc1N(CC(O)CN(CC(C)C)CC(C)C)S(=O)(=O)c1ccccc1` (stereo not given), the activity change was inconclusive: -33.5%.
With `O=C(NC(=S)NC1CCSC1=O)c1ccccc1F` (stereo not given) the activity change was inconclusive: -45.8%.
In the case of `O=C(Nc1ccc(S(=O)(=O)Nc2ccccc2)cc1)c1ccc(CN2CCOCC2)cc1`, the activity change is reported as inconclusive: -47.9%.
In the case of `Cc1ccc(OCCC(=O)OCC(=O)NCCc2ccc(Cl)cc2)cc1`, the activity change is reported as inactive: 11.8%.
For `Cc1ccc(C(=O)CN(Cc2ccccc2)C2=NCCS2)cc1`, the activity change was inconclusive: -32.3%.
In the case of `COc1ccc(OCC(=O)NNC(=O)Cn2c(=O)cnc3ccccc32)cc1`, the activity change is reported as inactive: 15%.
In the case of `CC(C)N(C(=O)CSc1nnc(Cc2csc(Nc3ccccc3)n2)o1)C(C)C`, the activity change is reported as active: -69.8%.
With `Cc1ccc(C)c(N2CCN(C(=O)CSc3ccsc3[N+](=O)[O-])CC2)c1` the activity change was inconclusive: -38.5%.
For `Cc1cc(S(=O)(=O)N2CCCOC2CNC(=O)C(=O)NCc2cccs2)ccc1F` (stereo not given), the activity change was inactive: -2.82%.
With `Cc1nc(NC(=O)c2ccc(Br)s2)sc1C(=O)N(C)C` the activity change was inconclusive: -35.7%.
With `Cc1ccc(NC(=O)COc2ccccc2CNC(C)(C)CC(C)(C)C)cc1` the activity change was active: -105%.
With `CCN1CCCC1CNC(=O)c1ccc2c(c1)NC(=O)/C(=C\c1ccccc1Cl)S2` (stereo not given) the activity change was inconclusive: -36.2%.
With `CC(C(=O)N1CCCC1)N(c1ccc(Cl)cc1)S(C)(=O)=O` (stereo not given) the activity change was inconclusive: -43.3%.
In the case of `O=C(CSC1=NCCS1)Nc1ccnc2ccccc12`, the activity change is reported as inconclusive: -41.4%.
